# Results published in the supplement of paper PMC8728848.
# The other results are listed elsewhere or left out.
# B1: rEtpA (Escherichia coli) (protein)
# chain: MNRIYKLKFDKRRNELVVVSEITTGVGNAKATGSVEGEKSPRRGVRAMALSLLSGMMIMAHPAMSANLPTGGQIVAGSGSIQTPSGNQMNIHQNSQNMVANWNSFDIGKGNTVQFDQPSSSAVALNRVVGGGESQIMGNLKANGQVFLVNPNGVLFGEGASVSTSGFVASTRDIKNDDFMNRRYTFSGGQKAGAAIVNQGELTTNAGGYIVLAADRVSNSGTIRTPGGKTVLAASERITLQLDNGGLMSVQVTGDVVNALVENRGLVSARDGQVYLTALGRGMLMNTVLNVSGVVEASGMHRQDGNIVLDGGDSGVVHLSGTLQADNASGQGGKVVVQGKNILLDKGSNITATGGQGGGEVYVGGGWQGKDSNIRNADKVVMQGGARIDVSATQQGNGGTAVLWSDSYTNFHGQISAKGGETGGNGGRVETSSHGNLQAFGTVSASAKKGKAGNWLLDSADITIVNGSNVSKTETTQSPPHTQFAPTAAGSAVSNTSINNRLNNGTSVTILTHRTRTGTAQGGNITVNAAINKSNGSDVNLTLQAGGNITVNNSITSTEGKLNVNLSGARTSNGSITISNNANITTNGGDITVGTTNTSNRVNISINNTTLNASNGNIQLTGTGTDSGILFAGNNRLTASNIALTGNSTSGNAINLTGTATLNATNNITLTGSSTSGNAINLKGNNTLTASNITLTGESTSGNAINLTDTTGTTTLNATNNITMQGTRVQIKHSNITAGNFALNATVAGSEISNTTLTATNNINLAAKTNSASSGVYLKDARITSTNGSITANGTATANGKATHLDGNVTLNASNGRIKLTGNGHGSASGILFAGNNRLTASNIALTGNSTSGNAINLTGTATLNATNDITLTGSSTSGNAINLTGTATLNATNNITLTGSSTSGNAINLKGNNTLTASNITLTGESTSGNAINLTDTTGTTTLNATNNITMQGTRVQIKHSNITAGNFALNATVAGSEISNTTLTATNNINLAAKTNSASSGVYLKDARITSTNGSITANGTATANGKATHLDGNVTLNASNGRIKLTGNGHGSASGILFAGNNRLTASNIALTGNSTSGNAINLTGTATLNATNDITLTGSSTSGNAINLTGTATLNATNNITLTGSSTSGNAINLKGNNTLTASNITLTGESTSGNAINLTDTTGTTTLNATNNITMQGTRVQIKHSNITAGNFALNATVAGSEISNTTLTATNNINLAAKTNSASSGVYLKDARITSTNGSITANGTATANGKATHLDGNVTLNASNGRIKLTGNGHGSASGILFAGNNRLTASNIALTGNSTSGNAINLTGTATLNATNDITLTGSSTSGNAINLTGTATLNATNNITLTGSSTSGNAINLKGNNTLTASNITLTGESTSGNAINLTDTTGTTTLNATNNITMQGTRVQIKHSNITAGNFALNATVAGSEISNTTLTATNNINLAAKTNSASSGVYLKDARITSTNGSITTNGTATANGKATHLDGNVTLNASNGRIKLTGNGHGSASGILFAGNNRLTASNIALTGNSTSGNAINLTGTATLNATNDITLTGSSTSGNAINLTGTATLNATNNITLTGSSTSGNAINLKGNNTLTASNITLTGESTSGNAINLTDTTGTTTLNATNNITMQGTRVQIKHSNITAGNFALNATVAGSEISNTTLTATNNINLAAKTNSASSGVYLKDARITSTNGSITANGTAPANDNATYLDGNVTLNASNGSIKLTGNGNGSTSGILFAGNNTLTASNITLTGNSEVYWQKLGPEQKLISEEDLNSAVDHHHHHH
# How the values were obtained:
# Assay in all cases: glycan array binding signal (z-score within array); higher = stronger binding
# Conditions in all cases: glycan notation: IUPAC condensed, linker removed
# [1] = biological target: Gal(b1-4)GlcNAc(b1-2)Man(a1-6)[Man(a1-3)]Man(b1-4)GlcNAc(b1-4)GlcNAc
# Method in brief: (§1)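 Columns mapping to the same glycan were averaged after glycan names were converted to IUPAC-condensed notation. The data come from 3228 arrays in the Consortium for Functional Glycomics database, limited to those with an available protein sequence. Binding is reported as a within-array Z-score averaged across arrays of one protein sequence and across linkers.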
# [2] = biological target: Gal(b1-4)GlcNAc(b1-2)[Gal(b1-4)GlcNAc(b1-4)]Man(a1-3)[Gal(b1-4)GlcNAc(b1-2)Man(a1-6)]Man(b1-4)GlcNAc(b1-4)GlcNAc
# Method in brief: as §1
# [3] = biological target: Gal(b1-4)GlcNAc(b1-2)[Gal(b1-4)GlcNAc(b1-4)]Man(a1-3)[Gal(b1-4)GlcNAc(b1-2)[Gal(b1-4)GlcNAc(b1-6)]Man(a1-6)]Man(b1-4)GlcNAc(b1-4)GlcNAc
# Method in brief: as §1
# [4] = biological target: Gal(b1-4)GlcNAc(b1-2)[Gal(b1-4)GlcNAc(b1-4)]Man(a1-3)[GlcNAc(b1-4)][Gal(b1-4)GlcNAc(b1-2)Man(a1-6)]Man(b1-4)GlcNAc(b1-4)GlcNAc
# Method in brief: as §1
# [5] = biological target: Gal(b1-4)GlcNAc(b1-2)[Gal(b1-4)GlcNAc(b1-4)]Man(a1-3)[GlcNAc(b1-4)][Gal(b1-4)GlcNAc(b1-2)[Gal(b1-4)GlcNAc(b1-6)]Man(a1-6)]Man(b1-4)GlcNAc(b1-4)GlcNAc
# Method in brief: as §1
# [6] = biological target: Gal(b1-4)GlcNAc(b1-2)[Gal(b1-4)GlcNAc(b1-6)]Man(a1-6)[Gal(b1-4)GlcNAc(b1-2)Man(a1-3)]Man(b1-4)GlcNAc(b1-4)GlcNAc
# Method in brief: as §1
# [7] = biological target: Gal(b1-4)GlcNAc(b1-2)[Gal(b1-4)GlcNAc(b1-6)]Man(a1-6)[Gal(b1-4)GlcNAc(b1-2)Man(a1-3)]Man(b1-4)GlcNAc(b1-4)[Fuc(a1-6)]GlcNAc
# Method in brief: as §1
# [8] = biological target: Gal(b1-4)GlcNAc(b1-2)[Gal(b1-4)GlcNAc(b1-6)]Man(a1-6)[GlcNAc(b1-4)][Gal(b1-4)GlcNAc(b1-2)Man(a1-3)]Man(b1-4)GlcNAc(b1-4)GlcNAc
# Method in brief: as §1
# [9] = biological target: Gal(b1-4)GlcNAc(b1-2)[Gal(b1-4)GlcNAc(b1-6)]Man(a1-6)[GlcNAc(b1-4)][Gal(b1-4)GlcNAc(b1-2)[Gal(b1-4)GlcNAc(b1-4)]Man(a1-3)]Man(b1-4)GlcNAc(b1-4)[Fuc(a1-6)]GlcNAc
# Method in brief: as §1
# [10] = biological target: Gal(b1-4)GlcNAc(b1-3)Gal(b1-3)GalNAc
# Method in brief: as §1
# [11] = biological target: Gal(b1-4)GlcNAc(b1-3)Gal(b1-3)GlcNAc
# Method in brief: as §1
# [12] = biological target: Gal(b1-4)GlcNAc(b1-3)Gal(b1-4)Glc
# Method in brief: as §1
# [13] = biological target: Gal(b1-4)GlcNAc(b1-3)Gal(b1-4)GlcNAc
# Method in brief: as §1
# [14] = biological target: Gal(b1-4)GlcNAc(b1-3)Gal(b1-4)GlcNAc(b1-2)Man(a1-3)[Gal(b1-4)GlcNAc(b1-3)Gal(b1-4)GlcNAc(b1-2)Man(a1-6)]Man(b1-4)GlcNAc(b1-4)GlcNAc
# Method in brief: as §1
# [15] = biological target: Gal(b1-4)GlcNAc(b1-3)Gal(b1-4)GlcNAc(b1-2)Man(a1-3)[Gal(b1-4)GlcNAc(b1-3)Gal(b1-4)GlcNAc(b1-2)Man(a1-6)]Man(b1-4)GlcNAc(b1-4)[Fuc(a1-6)]GlcNAc
# Method in brief: as §1
# [16] = biological target: Gal(b1-4)GlcNAc(b1-3)Gal(b1-4)GlcNAc(b1-2)[Gal(b1-4)GlcNAc(b1-3)Gal(b1-4)GlcNAc(b1-6)]Man(a1-6)[Gal(b1-4)GlcNAc(b1-3)Gal(b1-4)GlcNAc(b1-2)Man(a1-3)]Man(b1-4)GlcNAc(b1-4)GlcNAc
# Method in brief: as §1
# [17] = biological target: Gal(b1-4)GlcNAc(b1-3)Gal(b1-4)GlcNAc(b1-2)[Gal(b1-4)GlcNAc(b1-3)Gal(b1-4)GlcNAc(b1-6)]Man(a1-6)[Gal(b1-4)GlcNAc(b1-3)Gal(b1-4)GlcNAc(b1-2)Man(a1-3)]Man(b1-4)GlcNAc(b1-4)[Fuc(a1-6)]GlcNAc
# Method in brief: as §1
# [18] = biological target: Gal(b1-4)GlcNAc(b1-3)Gal(b1-4)GlcNAc(b1-3)Gal(b1-4)GlcNAc
# Method in brief: as §1
# [19] = biological target: Gal(b1-4)GlcNAc(b1-3)Gal(b1-4)GlcNAc(b1-3)Gal(b1-4)GlcNAc(b1-2)Man(a1-3)[Gal(b1-4)GlcNAc(b1-3)Gal(b1-4)GlcNAc(b1-3)Gal(b1-4)GlcNAc(b1-2)Man(a1-6)]Man(b1-4)GlcNAc(b1-4)GlcNAc
# Method in brief: as §1
# [20] = biological target: Gal(b1-4)GlcNAc(b1-3)Gal(b1-4)GlcNAc(b1-3)Gal(b1-4)GlcNAc(b1-2)Man(a1-3)[Gal(b1-4)GlcNAc(b1-3)Gal(b1-4)GlcNAc(b1-3)Gal(b1-4)GlcNAc(b1-2)Man(a1-6)]Man(b1-4)GlcNAc(b1-4)[Fuc(a1-6)]GlcNAc
# Method in brief: as §1
# [21] = biological target: Gal(b1-4)GlcNAc(b1-3)Gal(b1-4)GlcNAc(b1-3)Gal(b1-4)GlcNAc(b1-2)[Gal(b1-4)GlcNAc(b1-3)Gal(b1-4)GlcNAc(b1-3)Gal(b1-4)GlcNAc(b1-6)]Man(a1-6)[Gal(b1-4)GlcNAc(b1-3)Gal(b1-4)GlcNAc(b1-3)Gal(b1-4)GlcNAc(b1-2)Man(a1-3)]Man(b1-4)GlcNAc(b1-4)[Fuc(a1-6)]GlcNAc
# Method in brief: as §1
# [22] = biological target: Gal(b1-4)GlcNAc(b1-3)Gal(b1-4)GlcNAc(b1-3)Gal(b1-4)GlcNAc(b1-3)Gal(b1-4)GlcNAc(b1-2)Man(a1-3)[Gal(b1-4)GlcNAc(b1-3)Gal(b1-4)GlcNAc(b1-3)Gal(b1-4)GlcNAc(b1-3)Gal(b1-4)GlcNAc(b1-2)Man(a1-6)]Man(b1-4)GlcNAc(b1-4)GlcNAc
# Method in brief: as §1
binder,measurement,setting,value
B1,glycan array binding signal (z-score),[1],0.021
same,glycan array binding signal (z-score),[2],-0.327
same,glycan array binding signal (z-score),[3],-0.274
same,glycan array binding signal (z-score),[4],-0.163
same,glycan array binding signal (z-score),[5],-0.271
same,glycan array binding signal (z-score),[6],0.68
same,glycan array binding signal (z-score),[7],-0.222
same,glycan array binding signal (z-score),[8],-0.309
same,glycan array binding signal (z-score),[9],-0.376
same,glycan array binding signal (z-score),[10],-0.392
same,glycan array binding signal (z-score),[11],-0.38
same,glycan array binding signal (z-score),[12],-0.207
same,glycan array binding signal (z-score),[13],-0.434
same,glycan array binding signal (z-score),[14],-0.31
same,glycan array binding signal (z-score),[15],-0.17
same,glycan array binding signal (z-score),[16],-0.106
same,glycan array binding signal (z-score),[17],-0.356
same,glycan array binding signal (z-score),[18],-0.413
same,glycan array binding signal (z-score),[19],-0.319
same,glycan array binding signal (z-score),[20],-0.38
same,glycan array binding signal (z-score),[21],-0.362
same,glycan array binding signal (z-score),[22],-0.435
